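Five compound concentrations were applied to cells in 96-well plates for 48 hours; endpoints were derived by simple linear interpolation of the resulting dose-response curve. GI50: concentration for 50% inhibition of growth. TGI: total growth inhibition.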

This assay has as its system NCI-H322M lung. Put plainly: NCI-60 cell line screen, 48 h.
Regarding `O=C(CCC1CCCCC1)NCc1ccc(C(=O)O)cc1`, the TGI was above 100 µM.

On to `CC(=O)Nc1ccc(C(=O)NN2C(=O)C(Cl)C2c2cc(Br)cc(Br)c2O)cc1` (stereo not given), for which the TGI is above 100 µM. `CCOC(=O)C(C(=O)OCC)P(=S)(S)c1ccccc1` (stereo not given) registered a TGI above 100 µM. Turning to `CCCCCCCC/C(=C\C1=C(C)C(=O)C(OC)=C(OC)C1=O)C(=O)O`, the GI50 was above 100 µM and the TGI was above 100 µM. For the compound `C#CC#CC#CC#CC#CC#CC#CC#CC[C@@H]1OC[C@H](COC(=O)O[C@@H](C(=O)O[C@H]2C[C@@]3(O)[C@@H](OC(=O)c4ccccc4)[C@@H]4[C@]5(OC(C)=O)CO[C@@H]5C[C@H](O)[C@@]4(C)C(=O)[C@H](OC(C)=O)C(=C2C)C3(C)C)[C@@H](NC(=O)c2ccccc2)c2ccccc2)O1`, the GI50 was 1.58 µM and the TGI was above 25 µM. Take `CC[C@@]1(C[C@H]2C[C@@]3(C(=O)OC)c4[nH]c5ccccc5c4CCN3C2=S)COC2(CCCCC2)O1`: the TGI was above 100 µM. Regarding `COc1ccc(NC(=S)N/N=C(\c2ccccc2)c2ccccn2)cc1`, the TGI stood at 19.5 µM. With `Cn1cc(C2=C(n3ccc4ccccc43)C(=O)NC2=O)c2ccccc21`, the GI50 is above 25 µM and the TGI was above 25 µM. `N#Cc1c(=N)cc2c3ccccc3oc3c(C#N)c(N)[nH]c1c32` had a TGI above 100 µM. For `O=C1NC(=NCc2c(Cl)cccc2Cl)S/C1=C\c1ccc2ncccc2c1`, the GI50 is 5.29 µM and the TGI was above 25 µM. `O=c1oc2c([N+](=O)[O-])cc([N+](=O)[O-])cc2c2ccccc12` returned a TGI above 100 µM.

With `CCCCCCC(O)(c1ccc(F)cc1)C(CN1CCOCC1)c1ccccc1` (stereo not given), the GI50 was 19.8 µM and the TGI was 44.4 µM. For the compound `CC(C)OP(=O)(OC(C)C)/C(F)=N/Nc1ccc([N+](=O)[O-])cc1`, the TGI is above 100 µM. Same read-out and setting: as for `O=C1c2ccccc2C(=O)c2nc3c(O)cccc3cc21`, the figure is above 100 µM; as for `Nc1nc2c3c(ncn3CC(O)CO2)n1` (stereo not given), above 100 µM.

Compound `CCOC(=O)/C=C/C1OC(C)(C)OC1/C=C/C(=O)OCC` (stereo not given) yielded a TGI of 86 µM. For `O=C1c2ccccc2S(=O)(=O)N1CSC(=S)N1CCOCC1`, the GI50 was above 100 µM and the TGI was above 100 µM.

With `CCN(CC)c1c(C(=O)/C=C/c2ccc(F)cc2)c(-c2ccccc2)nn(C)c1=O`, the TGI is 17.7 µM.

As for `COc1ccc(C2NC(=O)c3cc4c(cc3N2)OCO4)cc1` (stereo not given), the GI50 was 11.7 µM and the TGI was above 100 µM. The compound `CN(C)C(=S)/N=c1\ssc(=Nc2ccccc2)n1C` gave a TGI above 100 µM. Compound `c1ccc2c(c1)N[C@@H]1c3[nH]c4ccccc4c3CC[C@H]21` returned a TGI of 31.8 µM. Regarding `O=Cc1cn(Cc2ccccc2)c2ccccc12`, the GI50 is 13.7 µM and the TGI is above 100 µM. On to `O=C(Nc1ccccc1SC(/C=C/NNC1=NC(c2ccccc2)C(c2ccccc2)=NN1)c1ccccc1)c1ccc(Cl)cc1Cl` (stereo not given), for which the TGI was above 100 µM. Take `CC1(C)OCC(C2OC(OC(=O)c3ccc(C(F)(F)F)cc3)C3OC(C)(C)OC23)O1` (stereo not given): the TGI is above 77.5 µM. Turning to `CN/N=C(/C=C/c1ccccc1)C(C)C`, the TGI is above 100 µM. In turn, `CCCCC1(C2c3ccccc3Oc3ccccc32)C(=O)N(c2ccccc2)N(c2ccccc2)C1=O` came in with a TGI above 100 µM.

Take `COc1ccc2nc3c(n2c1)C(=O)C(=O)c1ccccc1-3`: the GI50 is 1.72 µM and the TGI amounted to 3.15 µM. `CCC(=O)NC(Nc1ccccc1F)(C(F)(F)F)C(F)(F)F` displayed a TGI above 100 µM. `COC(=O)N[C@H]1C=C[C@@H]2/C=C(C)/C=C/[C@@H](C)[C@H]([C@H](C)[C@H](O)[C@@H](C)NC(C)=O)OC(=O)/C=C/C=C(C)\C=C\[C@]2(C)C1` showed a TGI above 45.3 µM. Turning to `CN1CCC(CN2c3ccccc3Sc3ccccc32)C1` (stereo not given), the TGI was 30.9 µM. Take `COc1ccc(C2=Cc3nc2c(-c2ccccc2)c2ccc([nH]2)c(-c2ccccc2)c2nc(c(-c4ccccc4)c4ccc([nH]4)c3-c3ccccc3)C=C2)cc1`: the TGI was above 100 µM. Compound `CCOC(=O)C1=C(C)N2CCOC2(C)C(C(=O)OC)C1c1cccc(Cl)c1` (stereo not given) had a TGI above 100 µM.

As for `CN(C)CCNC(=O)C1COc2cc(-c3cc(=O)c4ccccc4o3)ccc2O1` (stereo not given), the TGI came to 64.4 µM. For `CCOC(=O)c1cc(C(=O)c2cc(OC)c(OC)c(OC)c2)n2nc(C)ccc12`, the GI50 is 0.648 µM and the TGI is above 100 µM. The matching figures for `N=C(N)c1ccc(-c2ccc(-c3ccccc3)s2)s1`: 0.173 µM and 1.97 µM. The compound `CC(CO)CCC(O)C(C)(O)C1CCC2(O)C3=CC(=O)C4CC(O)C(O)CC4(C)C3CCC12C` (stereo not given) had a TGI above 100 µM.

On to `O=C(Nc1ccccc1C(=O)N/N=C(\c1ccccc1)c1ccccn1)c1ccccc1`, for which the GI50 is 0.469 µM and the TGI was above 100 µM. `CCSC1=CC(Cc2ccc(OC)cc2)N(C(=O)OC)C1` (stereo not given) returned a TGI above 100 µM. Turning to `CCCCCC[n+]1noc(N)c1-c1ccc(-c2c(N)on[n+]2CCCCCC)cc1`, the GI50 was 15 µg/mL and the TGI turned out to be 28.7 µg/mL. Take `Cn1cc(-c2csc(-c3c[nH]c4ccccc34)n2)c2cccnc21`: the GI50 is 0.794 µM and the TGI worked out at 48.5 µM. Compound `CCN(CC)CCn1ncc2c(N)ncnc21` yielded a TGI above 100 µM. Take `O=C1C=CC2(NN=C(c3ccccc3)N2c2ccccc2)c2cccc(O)c21` (stereo not given): the GI50 was 3.96 µM and the TGI came out at 14.6 µM.

Regarding `COc1ccc2c(c1)C(=O)C1(C2)[C@H](c2ccccc2)C2C(=O)c3cc(OC)ccc3C2[C@H]1c1ccccc1` (stereo not given in full), the TGI was above 100 µM. On to `Cc1oc2c(cc(O)c3ccccc32)c2cccc1-2`, for which the TGI is above 100 µM.

`[N-]=[N+]=Nc1cccc(-c2n[nH]c(Cl)cc2=O)c1` showed a TGI above 100 µM. Compound `O=C(OC1C(Oc2ccccc2COC(=O)C2(O)C=CCCC2=O)OC(CO)C(O)C1O)c1ccccc1` (stereo not given) yielded a TGI above 100 µM. Regarding `Nc1c(C(=O)N/N=C/c2ccco2)cnn1-c1ccnc2c(C(F)(F)F)cccc12`, the GI50 was 54.2 µM and the TGI is above 100 µM.

Turning to `C[C@]12CCC(=O)C(O)=C1CCC2=O`, the TGI is above 100 µM. Consider `COc1cc2c(cc1OCCCC(=O)Nc1cc(C(=O)Nc3cc(C(=O)Nc4cc(C(=O)NCCCN(C)C)n(C)n4)n(C)c3)n(C)c1)N=CC1CCCN1C2=O` (stereo not given), for which the TGI is above 100 µM. For `CC1CC(c2ccccc2)Nc2nc3ccccc3n21` (stereo not given), the TGI was above 100 µM.

Regarding `CC(=O)/C(=C\c1c(-c2ccccc2)[nH]c2ccccc12)S(C)(=O)=O`, the GI50 is 9.13 µM and the TGI was above 100 µM. Compound `CO/C(=N\N=C\c1ccccc1F)c1ccncc1` yielded a TGI above 10 µM. On the same count and under the same terms, to `CCCCS/C(=C(/C#N)C(N)=O)c1cc2c([nH]1)CCCC2` belongs 27.7 µM. The compound `CCOC(=O)c1cc2c([nH]1)c(OC(C)=O)cc1c2ccn1Cc1ccccc1` returned a TGI above 100 µM. In turn, `COC(=O)[C@]1(C)CCC[C@]2(C)C3CC4OOC3(C=C4C(C)(C)O)CCC21` (stereo not given in full) came in with a TGI above 100 µM. `COC(=O)C(/C(=N/NC(N)=O)C(=O)Nc1c(C)cccc1C(C)(C)C)c1nc2ccc(Cl)cc2[nH]c1=O` (stereo not given): the TGI was above 100 µM. Take `CCOC(=O)C(/C(=N/NC(=O)OC)C(=O)Nc1ccc(C(C)=O)cc1)c1cnc2ccccc2n1` (stereo not given): the TGI is above 100 µM. For `C=C(C)[C@@H]1CC[C@]2(C(N)=O)CC[C@]3(C)[C@H](CC[C@@H]4[C@@]5(C)C/C(=C/c6cccnc6)C(=O)C(C)(C)[C@@H]5CC[C@]43C)[C@@H]12`, the GI50 is 12.6 µM and the TGI was above 100 µM. `CCNC(=O)N1CCc2c(Cl)c3c(c(OC)c2[C@@H]1[C@H]1OCc2c1ccc(OC)c2OC)OCCO3`: the GI50 is 4.52 µM and the TGI is above 100 µM.

In turn, `CC(C)NC1(C(N)=O)CCN(Cc2ccccc2)CC1` yielded a TGI above 100 µM. The same measure, in the same setting: as for `CC1(O)C(C)(O)C(C)(O)C1(C)O` (stereo not given), the figure is above 100 µM; as for `CCOC(=O)C1C(c2ccc3c(c2)OCO3)c2c([nH][nH]c2=O)CC1(O)OCC` (stereo not given), above 100 µM. For `COc1ccc(C(O)c2cc3c(N)c(C(=O)Nc4ccccc4)sc3nc2C)cc1` (stereo not given), the GI50 was 0.0555 µM and the TGI came out at 47.4 µM.

In the case of `O=C1/C(=C/c2ccc(Cl)cc2)N=C(c2ccccc2)N1c1nc2ccc(Sc3ccccc3)cc2[nH]1`, the TGI was above 100 µM. As to `Cc1cc(O)c(C=NC(=S)c2ccncc2)c(=O)o1`, the TGI was above 100 µM. Still for that read-out and setting: to `N#CC(C(=O)C(N)=O)c1ccccc1Cl` (stereo not given) belongs above 100 µM; to `Cc1cc(S(=O)(=O)N/C(=C(\C#N)C(=O)c2ccccc2)[n+]2ccc(N(C)C)cc2)c([S-])cc1Cl`, above 100 µM; to `NC(=O)/C(=N\NC(=O)c1cc2ccccc2cc1O)C1C(=O)N(c2ccccc2)N=C1N` (stereo not given), above 100 µM.

For `COC(=O)C(=O)C(CC(=O)Nc1c(C)cccc1C)C(=O)OC` (stereo not given), the TGI is above 100 µM. Compound `CCOC(=O)c1ccc(C(=O)/C(C#N)=C2\CCCN2)n1C` displayed a TGI above 100 µM.

(Values after PubChem BioAssay (NCI).)
